Measured values as given in PubChem BioAssay AID652104 (National Center for Advancing Translational Sciences (NCATS), 2013).
The campaign covered roughly 410,000 compounds. About 7,200 (1.8%) were called active. The shares of active, inactive and inconclusive entries below differ from those in the screen. Calls come from the whole dose curve; as a rule, active = well fitted activation curve with a large enough effect; inconclusive = small, poorly fitted or top-dose-only effect, or another doubt; inactive = no such curve, though single readings can be large or run the other way. Where the call is inconclusive, the potency comes from a doubtful curve fit.

Assay: qHTS of TDP-43 Inhibitors; note: nearly all actives have a fitted effect of over 50% in size; for growth rescue (activation): % of control where 0% means no effect
Conditions: TDP-43 expressing yeast growth rescue, BacTiter-Glo, 24 h; growth rescue (activation): at 46.1 µM (top of the series) unless noted
Summary of the method: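 Galactose-induced TDP-43 yeast, OD600=0.02, compound pinned; 24 hr, 30 deg C; BacTiter-Glo luminescence for growth. Inhibitors of TDP-43 toxicity read as activators.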
Potency is the fitted concentration of half-maximal effect; tags give direction and shape of the fitted curve.

Potency, inconclusive:
CNC(=O)c1cc2c(ccc3ccccc32)o1 12.6 µM [activator, partial curve]
Cc1ccc(NC(=O)CN(C)S(=O)(=O)c2cccc3cccnc23)cc1 7.08 µM [activator, partial curve]
COc1ccc(N2CCN(C(=O)c3cnn(-c4ccc(F)cc4)c3-n3cccc3)CC2)cc1 3.16 µM [activator, single point]
CCNC(=O)COC(=O)C1CCC(=O)N(c2ccc(OC)cc2)C1c1ccc(OC)cc1 (stereo not given) 6.31 µM [activator, partial curve, poor fit]
O=C(Cc1cccs1)NCc1ccc(Cl)cc1Cl 3.16 µM [activator, single point]
COc1ccc(N2C(=O)CCC(C(=O)c3ccccc3)=C2C)cc1 35.5 µM [activator, single point]
C/C(=N\NS(=O)(=O)c1cccc([N+](=O)[O-])c1)c1cccnc1 1.78 µM [activator, partial curve]
O=C1/C(=C/c2ccncc2)SC(=S)N1N1CCOCC1 22.4 µM [activator, single point]
COc1ccccc1-c1ocnc1C(=O)Nc1ccc(N2CCOCC2)cc1N1CCOCC1 17.8 µM [activator, single point]
CCOC(=O)c1c(NC(=O)C(C)OC(=O)c2ccc(NC(=O)CC#N)cc2)sc2c1CCCC2 (stereo not given) 11.2 µM [activator, partial curve]
CCOC(=O)c1sc(=S)n(Cc2ccccc2)c1N 31.6 µM [activator, single point]
Cc1ccc(-n2nnnc2-c2ccccc2)cc1 11.2 µM [activator, partial curve]
Cc1cc(C)c(C#N)c(N2CCN(c3ccccc3F)CC2)n1 7.08 µM [activator, partial curve]
COc1cc(F)cc(C2=CC(=O)C[C@H](c3ccc(F)cc3)C2)c1 22.4 µM [activator, single point]
COc1cc2sc(C)nc2c2sccc12 20 µM [activator, partial curve]
O=C(NCCc1csc(-c2ccccc2)n1)c1cccs1 2.82 µM [activator, full curve]
CC(C)OCCCNS(=O)(=O)c1ccc2ccccc2c1 11.2 µM [activator, single point]
Cn1nccc1C(=O)N1CCC(Cc2ccccc2)CC1 17.8 µM [activator, single point]
Cc1ccccc1CC1(CO)CCCN(C(=O)Cc2c(F)ccc(F)c2F)C1 (stereo not given) 31.6 µM [activator, single point]
CC(C)Oc1cccc(C(=O)Nc2ccc3oc(-c4cccc(Cl)c4)nc3c2)c1 11.2 µM [activator, partial curve, poor fit]
O=C(c1ccc(CSc2ccc(Cl)cc2)cc1)N1CCOCC1 35.5 µM [activator, single point]
O=C(Nc1cccnc1)c1ccc(Oc2ccccc2)cc1 15.8 µM [activator, single point]
CCN(CC)C(=O)c1cccc2c1C(=O)c1ccccc1-2 11.2 µM [activator, partial curve, poor fit]
O=C1CC(c2cccs2)c2cc3c(cc2N1)OCO3 (stereo not given) 28.2 µM [activator, single point]
COc1ccc(N2C(=O)c3ccccc3NC2c2ccc(OC)c(COc3ccccn3)c2)cc1 (stereo not given) 0.316 µM [activator, full curve, poor fit]
CCOC(=O)c1ccccc1NS(=O)(=O)c1cnn(CC)c1C 35.5 µM [activator, partial curve]
CC(=O)NCc1ccc(-c2csc(-c3cccs3)n2)cc1 11.2 µM [activator, single point]
COc1ccc(NC(=S)N(CCN(C)C)C(C)c2ccco2)cc1Cl (stereo not given) 35.5 µM [activator, single point]
c1coc(CNc2nc(-c3cccs3)cs2)c1 11.2 µM [activator, partial curve]
Cc1cc(C(=O)OCC(=O)N(C)c2ccccc2)c2ccccc2n1 12.6 µM [activator, partial curve]
COc1ccc(S(=O)(=O)n2nc(C)c(S(=O)(=O)N3CCCCCC3)c2C)cc1 0.316 µM [activator, full curve, poor fit]
CCCOc1ccc(C(=O)NNC(=S)NC(=O)c2ccccc2)cc1 11.2 µM [activator, single point]
Nc1nn(S(=O)(=O)c2ccccc2)cc1-c1cccc([N+](=O)[O-])c1 11.2 µM [activator, partial curve]
CC(=O)c1ccc(S(=O)(=O)NC2CC(=O)N(c3ccc(C)cc3)C2)cc1 (stereo not given) 3.55 µM [activator, partial curve]
CC(C)=CCc1c2c(c3occ(-c4ccc(O)cc4)c(=O)c3c1O)C=CC(C)(C)O2 22.4 µM [activator, partial curve]
O=C(CSc1nccn1-c1cccc(Cl)c1)Nc1ccc2c(c1)OCCO2 10 µM [activator, partial curve]
COC(=O)c1scc(-c2ccc(C)cc2)c1S(=O)(=O)Nc1ccc(F)cc1F 35.5 µM [activator, single point]
O=C(O)c1ccc(NC(=O)C(c2ccccc2)c2ccccc2)cc1 14.1 µM [activator, partial curve]

Potency, active:
O=C(Nc1ccc(Br)cc1)C1CCCC1 11.2 µM
CCOc1ccc(C(=O)Nc2ccccc2CC)cc1[N+](=O)[O-] 28.2 µM
CCNC(=O)n1nccc1C(C)Oc1ccccc1 (stereo not given) 11.2 µM
O=C(Nc1cc(C(F)(F)F)ccc1-n1cncn1)c1ccc([N+](=O)[O-])o1 14.1 µM
CC(C)N(C(=O)[C@H]1C[C@H](CC(=O)NCc2ccco2)C(=O)N2CCc3c([nH]c4cc(-c5ccco5)ccc34)[C@]12C)C(C)C 12.6 µM
COc1ccc(-c2csc(C(O)c3ccc(F)c(F)c3)n2)cn1 (stereo not given) 22.4 µM
Cc1ccc(Nc2c(-c3ccc(Cl)cc3)nc3sccn23)c(C)c1 25.1 µM
COC(=O)C1=C(C)NC(C)=C(C(=O)OCC(C)C)C1c1ccccc1[N+](=O)[O-] (stereo not given) 35.5 µM
COc1ccc(NC(=O)C2Cc3c(-c4ccccc4Oc4ccccc4)ccnc3O2)cc1OC (stereo not given) 11.2 µM
Cc1ccc(-n2c(C)cc(C(=O)CSc3nncs3)c2C)cc1 22.4 µM

Growth rescue (activation), inactive:
Cc1ccc(CNC(=O)CCc2c(C)c3ccc(O)c(C)c3oc2=O)cc1 16.1%
O=C(Nc1ccc(Br)cc1F)C1CCN(c2nc3ccccc3[nH]2)CC1 0.711%
CCOc1ccc(C(=O)CCC(=O)N(CC)CC(=O)NCc2cccs2)cc1 -9.35%
Clc1ccc2c(c1)-c1c(cnc3cc(-c4ccccc4)nn13)CO2 21%
O=C(NCc1ccc2c(c1)CCN2C(=O)c1ccccc1)c1ccccc1 24.4%
O=C(COc1ccc(Cl)cc1)Nc1ccc(Cc2ccncc2)cc1 8.12%
CC(C)C(=O)N1c2nc(-c3ccco3)nn2C2(CCCCC2)[C@@H]2CCCC[C@@H]21 -1.86%
CCOc1ccc(-c2cn(-c3ccc(C)cc3)c(SCC(=O)Nc3ccc(C)cc3)n2)cc1 0% [at 9.22 µM]
O=C(Cn1c2ncccc2c(=O)n1-c1ccccc1)NCc1ccccc1Cl 26.9%
Cc1ccc(NC(=O)Cc2coc3ccc(C(C)C)cc23)c(C)c1 2.97%
CCn1c(CNC(=O)c2ccco2)nnc1SCC(=O)Nc1cc(F)ccc1C -8.24%
COc1ccccc1CNc1ncnc2sccc12 25%
COc1ccc(NC(=O)c2c(NC(=O)CNCc3ccco3)sc3c2CCC3)c(OC)c1 -2.54%
COc1ccc(CN2C(=O)c3cccnc3C2=O)cc1S(=O)(=O)NCc1ccco1 13.2%
O=C(CSc1nc2ccc(Cl)cc2[nH]1)NC1CCCc2ccccc21 (stereo not given) -36%
CCOc1ccc(CNC(=O)c2ccc3nc(CC)c(CC)nc3c2)cc1 11.4%
Cc1ccc(C)c(NC(=O)N2CCC(CN3CCOCC3)CC2)c1 -4.17%
CC(=O)Nc1ccc(NC(=O)c2cc(C)nn2-c2ccccc2)cc1 13.1%
CCNc1ccc(-c2nc(-c3ccccn3)no2)cc1[N+](=O)[O-] -20.8%
Cc1cc(NC(=O)COCc2cc(-c3ccc(F)cc3)on2)ccc1Br 1.06%
Cc1cc(Nc2cccc(Cl)c2)c2ccccc2n1 -25.4%
COc1ccc(NC(=O)Cn2c(=O)n(-c3ccccc3)c(=O)c3c4c(sc32)CCCC4)c(OC)c1 19.3%
Cc1nn2c(=O)cc(COC(=O)c3cccc(NC(=O)COc4ccccc4Cl)c3)nc2s1 13.4%
COc1ccc(C)cc1NC(=O)Cn1c(=O)c(C(F)(F)F)nc2ccccc21 15.5%
CN(C)S(=O)(=O)c1ccc2c(c1)N(CC(=O)NCc1ccc(F)cc1)C(=O)CS2 14.8%
Cc1ccc(N2CCN(S(=O)(=O)c3cc(C(=O)Nc4cc(Cl)cc(Cl)c4)ccc3F)CC2C)cc1 (stereo not given) 15.6%

Growth rescue (activation), inconclusive:
O=C(Nc1ccccc1Br)c1ccc(N2CCCC2=O)cc1 32.6% [activator]
